Experimental findings from PubChem BioAssay AID463173 (ICCB-Longwood Screening Facility, Harvard Medical School, 2010) are described below.

Molecules are shown by their SMILES. In all, about 52,000 compounds went through this assay and about 1,700 (3.3%) were called active. Cut-off read from the data, not from the text of the source: active = survival mostly below about 52% (no sharp cut-off); inactive = mostly above about 56%. This is one part of the list.

The subject of the experiment is Wild type. As to the kind of experiment: growth inhibition of S. aureus wild type versus tarO mutant, primary screen, teichoic acid synthesis inhibitors, RN4220, OD600 (AID 463173). Conditions: S. aureus RN4220 wild type/DeltatarO growth, OD600, 18 h, hits give low values, screened at 18.75 µg/mL (by protocol).
As for `COc1ccc(CNC(=O)Cc2csc3ccccc23)cc1OC`, the survival was inactive: 78%.
As for `CCc1nn(CC(=O)N2CCCCC2)c(=O)c2cc3sccc3n12`, the figure is inactive: 65%; as for `Nc1ccc(S(=O)(=O)NCc2ccncc2)cc1`, inactive: 99%.
Consider `CC1=CC(C)C2C(=O)N(c3ccccc3)C(=O)C2C1` (centres undefined), for which the survival is inactive: 111%.
For `CC(NC(=O)c1cc(Sc2ccc(F)cc2F)nc2ccccc12)c1ccccc1` (centres undefined), the survival is inactive: 73%.
As for `COc1cc(Br)c(/C=C(\C#N)c2nc3ccccc3[nH]2)cc1OC`, the figure is inactive: 136%; as for `CCc1ccccc1NC(=O)C1CCC(CNS(=O)(=O)c2ccc3c(c2)CC(C)N3C(C)=O)CC1` (centres undefined), inactive: 100%.
As for `Cc1cc(C(=O)NCC(=O)O)c(C)o1`, the figure is inactive: 112%; as for `Cc1ccc(N2C(=O)CSC23C(=O)N(CC(=O)NC2CCCCC2)c2ccccc23)cc1` (centres undefined), inactive: 85%; as for `CC(C)OCCCNC(=O)c1ccc(-n2c(-c3ccccc3)cc3c2CCCC3)cc1`, inactive: 97%.
In the case of `CC(C)CN1CCc2nc(N3CCN(c4ncccn4)CC3)ncc2C1` it was inactive: 75%; in that of `COc1cccc(C(=O)NCC(c2ccc(N(C)C)cc2)N2CCCC2)c1OC` (centres undefined), inactive: 87%.
Take `COc1ccc2nc(NC(=O)c3nc(SCc4ccc(F)cc4)ncc3Cl)sc2c1`: the survival was inactive: 92%.
With `Cc1cn2c(=O)c(S(=O)(=O)NCCc3ccccc3)c(C)nc2s1`, the survival is inactive: 86%.
In the case of `CCOc1ccc(-c2nnc(SCC(=O)NCCC(C)C)nc2-c2ccc(OCC)c(OC)c2)cc1OC`, the survival was inactive: 110%.
In the case of `COc1ccccc1CNCC(=O)Nc1cc(C)on1` it was inactive: 104%.
In the case of `COc1ccc2nc(SCC(=O)c3c(C)[nH]c4ccccc34)nc(C)c2c1`, the survival was inactive: 82%.
Consider `CCOc1ccc(OCC)c(NC(=O)C2CCN(S(=O)(=O)c3ccc(Br)s3)CC2)c1`, for which the survival is inactive: 77%.
In the case of `O=C(COC(=O)CCCC1=NS(=O)(=O)c2ccccc2N1)Nc1ccc(Br)cc1` it was inactive: 81%; in that of `O=C(Nc1ccc(F)cc1)[C@H](CSCc1ccccc1)N1Cc2ccccc2C1=O`, inactive: 75%.
In the case of `Cc1ccc(N2CCN(C(=O)Cc3c(C(=O)O)c(C)cn3C)CC2)c(C)c1`, the survival is inactive: 71%.
In the case of `Cc1ccc(S(=O)(=O)c2nnn3c2nc(N2CCN(c4ccc(F)cc4)CC2)c2cc(Cl)ccc23)cc1C` it was inactive: 90%; in that of `Cc1cccc(NC(=O)N2CCc3c(sc4c3CCCC4)C2c2ccc(F)cc2)c1` (centres undefined), inactive: 32%.
Consider `COc1cccc(-n2c(=O)c3c(C)c(C(=O)N(C)C)sc3n(CC(=O)NCCc3ccc(OC)c(OC)c3)c2=O)c1`, for which the survival is inactive: 73%.
In the case of `CCc1ccc(NC(=O)CSc2nc3nccnc3c(=O)n2CCc2c[nH]c3ccccc23)cc1` it was inactive: 113%; in that of `COc1ccc(-c2nc(C)c(CCNC(=O)Cc3ccc(F)cc3)s2)cc1OC`, inactive: 84%; in that of `CCc1ccc(NC(=O)C2CCN(C(=O)N3CC(CC)Oc4ccccc43)CC2)cc1` (centres undefined), inactive: 66%.
As for `COC(=O)C(CCSC)NC(=O)c1c(C)oc2ncn(CC(C)C)c(=O)c12` (centres undefined), the figure is inactive: 69%; as for `Cc1ccc(NC(=O)C(=O)NCC(c2cccnc2)N2CCN(C)CC2)cc1F` (centres undefined), inactive: 86%.
In the case of `Cc1c(Cl)cccc1NC(=O)CSc1ncccc1C(=O)Oc1ccccc1Cl` it was inactive: 94%.
For the compound `CCOC(=O)c1ccc(NC(=O)c2ccc3c(c2)NC(=O)c2ccccc2S3)cc1`, the survival is inactive: 93%.
Turning to `Cc1nc2ccccc2c(=O)n1NC(=O)c1ccccc1`, the survival is inactive: 96%.
As for `COc1cccc(C(=O)Nc2ccc(-c3cn4cccnc4n3)cc2)c1OC`, the figure is inactive: 133%.
In the case of `CCOc1ccc(NC(=O)Cn2ccn(-c3ccc(F)c(F)c3)c(=O)c2=O)cc1`, the survival was inactive: 117%.
As to `COc1ccc(CNC(=O)c2cccc(-n3cnc4cccnc43)c2C)cc1`, the survival was inactive: 72%.
In the case of `Cc1ccc(N2C(=O)c3[nH]nc(-c4ccc(Cl)cc4)c3C2c2ccc(F)cc2)cc1` (centres undefined) it was inactive: 36%.
As for `COc1cc2ccccc2cc1C(=O)Nc1ccc(Cl)c(-c2nc3ccccc3o2)c1`, the figure is inactive: 41%.
For `Cc1ccc2c(c1)cc(CN(Cc1ccco1)C(=O)c1ccccc1)c1nnnn12`, the survival was inactive: 95%.
In the case of `CCOCCSc1c(C)cnc2c1c(=O)n(C)c(=O)n2C` it was inactive: 57%; in that of `CCC(C)NC(=O)c1ccc2nc(Cc3ccc(OC)cc3)oc2c1` (centres undefined), inactive: 71%; in that of `COc1ccc(Cc2nnc(SCC(=O)Nc3ccc(S(=O)(=O)N4CCCCCC4)cc3)o2)cc1`, inactive: 112%.
In the case of `CCn1ccc2cc(S(=O)(=O)N3CCC(C(=O)NCCc4ccc(C)cc4)CC3)ccc21`, the survival was inactive: 71%.
As for `COc1ccc(NC(=O)CSCc2cnn(-c3ccccc3)c2-n2cccc2)cc1`, the figure is inactive: 123%; as for `CC(C)CNC(=O)Cc1ccccc1`, inactive: 101%; as for `Cc1ccc2[nH]c(=O)cc(C(=O)O)c2c1`, inactive: 118%.
Consider `COc1cc(C(=O)N2CCN(CCc3ccccn3)CC2)cc(OC)c1OC`, for which the survival was inactive: 82%.
In the case of `COc1cc(OC)cc(C(=O)NCC(c2cccs2)S(=O)(=O)c2ccc(F)c(C)c2)c1` (centres undefined), the survival was inactive: 143%.
In the case of `Cc1nc2ccc(NC(=S)NCCCO)cc2nc1C` it was inactive: 105%; in that of `COc1ccccc1NC(=O)CN1C(=O)C2(SCC(=O)N2c2ccc(C)c(C)c2)c2ccccc21` (centres undefined), inactive: 74%; in that of `Cc1ccc(N(CC(=O)Nc2cc(C)cc(C)c2)S(=O)(=O)c2cccc3nonc23)cc1`, inactive: 85%.
As for `CC1=C(c2ccc(C)cc2)S(=O)(=O)N(Cc2ccc(C(=O)Nc3ccc(F)cc3C)cc2)C1=O`, the survival was inactive: 135%.
In the case of `O=CN1CCN(S(=O)(=O)c2ccc(S(=O)(=O)NC3CC3)cc2)CC1` it was inactive: 110%; in that of `O=C(CSc1ccc(-c2ccc(F)cc2)nn1)N1CCOCC1`, inactive: 112%.
With `NS(=O)(=O)c1ccc(NC(=O)c2ccc3c(c2)CCN3S(=O)(=O)c2ccccc2)cc1`, the survival is inactive: 75%.
In the case of `CC(CC(=O)Nc1ccc(Br)cc1F)S(=O)(=O)c1ccc2c(c1)NC(=O)CO2` (centres undefined) it was inactive: 63%; in that of `CC(C)c1ccc(C2N=C(N)Nc3nc4ccccc4n32)cc1` (centres undefined), inactive: 93%.
For the compound `Cc1cc(C)cc(NC(=O)Cn2c(=O)c3ccccc3n3nncc23)c1`, the survival is inactive: 84%.
Take `CCCCOc1ccc(CNC(=O)CCCN2C(=O)CSc3c2c(C)nn3-c2ccccc2)cc1`: the survival is inactive: 59%.
As to `CCOC(=O)c1ccccc1NC(=O)c1sc2nc3n(c(=O)c2c1C)CCCC3`, the survival was inactive: 111%.
With `CCc1ccc(CNC(=O)CN2C(=O)c3cccnc3Oc3ccc(C)cc32)cc1`, the survival was inactive: 71%.
Turning to `Cc1ccc2c(=O)cc(C(=O)Nc3ccc(S(=O)(=O)N4CCCCCC4)cc3)oc2c1C`, the survival is inactive: 72%.
In the case of `O=C(O)CCc1ccc(-c2ccc(F)cc2)n1CCC(=O)O` it was inactive: 105%; in that of `Cc1c(Cl)cccc1NC(=O)C(C)n1nnc2sc3c(c2c1=O)CCCC3` (centres undefined), inactive: 97%.
As to `Cc1c(C)n(C)c2ccc(C(=O)N3CCN(c4ccccc4)CC3)cc12`, the survival was inactive: 64%.
As for `COc1ccc(C2NCCO2)cc1OC` (centres undefined), the figure is inactive: 116%; as for `CSc1ncc(Cl)c(C(=O)N(Cc2ccc(N(C)C)cc2)Cc2ccco2)n1`, inactive: 99%.
Regarding `Cc1ccc(CNC(=O)Cn2cc(C(=O)c3ccc(F)cc3)c(=O)c3ccc(C)nc32)cc1`, the survival was inactive: 64%.
In the case of `CCc1ccc(Cc2cnc(NC(=O)c3ccc4c(c3)CC(c3ccccc3)OC4=O)s2)cc1` (centres undefined) it was inactive: 92%.
With `Cc1cccc(C2CC(=O)Oc3c2c(=O)n(C)c2ccccc32)c1` (centres undefined), the survival is inactive: 143%.
In the case of `CCOC(=O)C1CCN(C(=O)C2CCN(C3=NS(=O)(=O)C(c4ccc(C)c(C)c4)=C3C)CC2)CC1` it was inactive: 80%; in that of `CC(C)CCNC(=O)C1CCC(Cn2c(=O)c3sccc3n(CC(=O)NC(C)C)c2=O)CC1` (centres undefined), inactive: 87%; in that of `O=C(Cn1c(=O)n(-c2ccc(F)c(Cl)c2)c(=O)c2sc3ccccc3c21)NC1CCCC1`, inactive: 97%.
On to `Cc1ccc(-n2c(=O)c3oc4ccccc4c3n(Cc3ccccc3F)c2=O)cc1C`, for which the survival was inactive: 115%.
As for `COc1ccc(CNC(=O)c2cc3c(s2)-c2ccccc2OC3)cc1`, the survival is inactive: 92%.
As for `CN(C)c1cc(Nc2ccc(Cl)cc2)c2c3c(onc13)-c1ccccc1C2=O`, the figure is inactive: 96%; as for `CCC(C)NC(=O)C(=O)Nc1c2c(nn1-c1ccccc1)CS(=O)(=O)C2` (centres undefined), inactive: 72%; as for `COc1ccc(CNCCC2(O)CC(C)N(C)CC2C)cc1OC` (centres undefined), inactive: 113%.
`O=C(c1ccc2c(c1)N(Cc1ccc(Cl)cc1)C(=O)c1ccccc1S2(=O)=O)N1CCCCC1`: the survival was inactive: 144%.
Consider `CC1CN(C(=O)CCC(=O)NCc2ccc(F)cc2)c2cc(Cl)ccc2O1` (centres undefined), for which the survival is inactive: 90%.
As for `COc1ccc(NC(=O)CSc2nc3c(oc4ccccc43)c(=O)n2-c2ccc(C)c(C)c2)cc1`, the figure is inactive: 94%; as for `CCOC(=O)c1c(NC(C)=O)c2c3c(sc2n1Cc1nc(-c2ccccc2C)oc1C)CCCC3`, inactive: 89%; as for `O=C(Nc1nc2ccc(F)cc2s1)c1nc(S(=O)(=O)Cc2ccccc2)ncc1Cl`, inactive: 27%.
As for `O=C(O)C1CSC2c3ccccc3C(=O)N12` (centres undefined), the survival was inactive: 124%.
Take `CCOc1ccc(CCNC(=O)C2COc3ccccc3C2)cc1OCC` (centres undefined): the survival is active: -2%.
In the case of `O=C(CN1C(=O)CCSc2ccccc21)Nc1ccccc1F` it was inactive: 81%.
Regarding `COc1cc(OC)c(NC(=O)NCc2ccc3c(c2)CCN3C(=O)c2ccccc2)cc1Cl`, the survival was inactive: 97%.
Take `COc1ccc2c(c1)CCc1c(C(=O)Nc3c(C)nn(Cc4ccc(Cl)c(Cl)c4)c3C)noc1-2`: the survival was inactive: 97%.
As for `CC1=C(C(=O)Nc2ccccc2)C(c2ccc(C)o2)NC(=S)N1` (centres undefined), the figure is inactive: 109%; as for `Cc1ccc(S(=O)(=O)c2nc(-c3cccc(C)c3)oc2N2CCN(c3ccccc3)CC2)cc1`, inactive: 117%.
